Among all 310,000 compounds or so, about 2,200 (0.71%) showed an effect of 50% or more. Effects have a minus sign here. Some of the results follow.
The compounds below were run against human ether-à-go-go-related gene (hERG) potassium channel (human, UniProt Q12809) (assay: primary screen, population patch clamp on CHO cells stably expressing hERG).
Sequence of human ether-à-go-go-related gene (hERG) potassium channel (Q12809 whole entry, looked up): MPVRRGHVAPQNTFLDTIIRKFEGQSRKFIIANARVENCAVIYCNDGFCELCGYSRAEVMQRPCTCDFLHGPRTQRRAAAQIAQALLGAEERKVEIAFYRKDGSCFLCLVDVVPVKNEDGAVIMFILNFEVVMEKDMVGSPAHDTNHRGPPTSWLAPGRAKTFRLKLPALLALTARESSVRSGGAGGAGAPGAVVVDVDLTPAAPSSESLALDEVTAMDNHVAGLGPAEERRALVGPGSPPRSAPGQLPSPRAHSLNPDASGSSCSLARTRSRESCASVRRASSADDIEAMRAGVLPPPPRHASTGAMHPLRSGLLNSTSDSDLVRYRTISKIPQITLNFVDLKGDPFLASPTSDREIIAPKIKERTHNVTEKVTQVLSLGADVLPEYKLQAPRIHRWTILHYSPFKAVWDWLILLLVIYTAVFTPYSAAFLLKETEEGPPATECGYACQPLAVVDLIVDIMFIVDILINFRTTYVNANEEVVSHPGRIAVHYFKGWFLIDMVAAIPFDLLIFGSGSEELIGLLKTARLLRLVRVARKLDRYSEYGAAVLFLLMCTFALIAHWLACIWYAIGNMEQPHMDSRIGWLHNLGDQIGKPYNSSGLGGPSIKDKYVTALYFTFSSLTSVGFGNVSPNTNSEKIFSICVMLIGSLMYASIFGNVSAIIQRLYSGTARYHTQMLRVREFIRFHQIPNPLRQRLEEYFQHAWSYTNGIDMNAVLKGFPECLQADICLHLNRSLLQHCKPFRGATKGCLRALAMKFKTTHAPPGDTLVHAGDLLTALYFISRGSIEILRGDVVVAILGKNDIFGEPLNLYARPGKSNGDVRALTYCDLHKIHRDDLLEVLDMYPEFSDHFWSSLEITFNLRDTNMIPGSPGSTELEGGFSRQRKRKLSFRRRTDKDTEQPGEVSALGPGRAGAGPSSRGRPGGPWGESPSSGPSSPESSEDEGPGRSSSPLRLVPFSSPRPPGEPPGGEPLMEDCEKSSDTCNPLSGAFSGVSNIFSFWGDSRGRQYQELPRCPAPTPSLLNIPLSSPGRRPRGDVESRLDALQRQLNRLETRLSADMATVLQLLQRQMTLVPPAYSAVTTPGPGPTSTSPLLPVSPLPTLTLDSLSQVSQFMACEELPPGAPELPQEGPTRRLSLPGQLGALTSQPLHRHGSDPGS

Row | Compound | hERG current change (%, negative = inhibition) at 1uM
1 | Clc1cccc(CN2CCc3c([nH]c4ccccc34)C2)c1 | 0.287%
2 | COc1ccc(-c2oc(=O)c3cc(OC)c(OC)cc3c2-c2cc(F)cc(OC)c2)cc1 | 17.7%
3 | COCCNC(C)C(=O)Nc1ccc(Br)cc1.Cl (stereo not drawn) | 17.6%
4 | CCOc1cc(N2CCOCC2)c(OCC)cc1NC(=O)COC(=O)C1CCCN1S(=O)(=O)c1ccccc1F (stereo not drawn) | 0.718%
5 | O=C(C1CCN(S(=O)(=O)c2ccccc2F)CC1)N1CCc2ccccc21 | 7.02%
6 | CCOC(=O)c1cnc2oc3ccccc3n2c1=O | 10.7%
7 | Cn1nc(C(C)(C)C)cc1NC(=O)Nc1cc(Cl)cc(Cl)c1 | 11%
8 | CC1CCN(c2nc3c(=O)[nH]c(N)nc3n2[C@@H]2O[C@H](CO)[C@@H](O)[C@H]2O)CC1 | 17.2%
9 | Cc1ccc(CNc2nc3ccccc3n3cnnc23)cc1 | 7.42%
10 | c1ccc(C2NCCn3cccc32)cc1 (stereo not drawn) | 12.8%
11 | CCN(CC)C(=O)Cn1cc(C(=O)C(=O)NCCc2c[nH]c3ccccc23)c2ccccc21 | 11.2%
12 | COc1cc(OC)c2c(-c3ccccc3)cc(=O)oc2c1C(CCN1CCCC(C)C1)c1ccc(N(C)C)cc1 (stereo not drawn) | 8.15%
13 | Fc1ccc2[nH]c3c(NCc4ccccc4)ncnc3c2c1 | 15.4%
14 | Cn1c(CC(=O)Nc2ccccc2)nnc1SCC(=O)Nc1ccc(N2CCOCC2)cc1 | 17.7%
15 | Cc1ccc(C)c(NC(=O)C2CCCN(S(=O)(=O)c3cccnc3)C2)c1 (stereo not drawn) | 20.2%
16 | CCc1ccc(N2CC(O)(c3cccs3)[N+]3=C2SCCC3)cc1.[Br-] (stereo not drawn) | -38.5%
17 | CCOC(=O)c1cc(CC)sc1/N=C/C1=C(O)CC(C)(C)CC1=O | 8.59%
18 | CC(C)(C)OC(=O)N/N=C/c1ccc(Br)cc1 | 11.1%
19 | COc1ccc(-c2cc(=O)oc3cc(OC(C)C(=O)O)ccc23)cc1 (stereo not drawn) | 9.71%

Row | Compound | hERG current change (%, negative = inhibition) at 1uM
20 | NNc1ncnc2c1cnn2-c1ccccc1 | 5.6%
21 | CCOc1cc(C(=O)Nc2nnc(C)s2)cc(OCC)c1OCC | 3.72%
22 | COc1ccc(-c2nc(SC(C)C(=O)c3c(N)n(C)c(=O)n(C)c3=O)n[nH]2)cc1 (stereo not drawn) | 19.1%
23 | Cc1cc(C)cc(C(=O)NN2CCOCC2)c1 | -0.432%
24 | CCCCc1cc(=O)oc2cc(C)cc(OC(C)C(=O)NC(Cc3c[nH]c4ccc(O)cc34)C(=O)O)c12 (stereo not drawn) | -5.83%
25 | COc1ccc(S(=O)(=O)N2CC=C(C(=O)Nc3ccc(NC(C)=O)cc3)CC2)cc1 | 25.2%
26 | CC#CCc1cc2ccccc2c(=O)o1 | 14.8%
27 | CN(CC(=O)Nc1ccc(N2CCOCC2)cc1)CC(=O)Nc1ccccc1[N+](=O)[O-] | 8.04%
28 | O=C(Cc1ccccc1)Nc1nc(-c2cccc([N+](=O)[O-])c2)cs1 | 15.9%
29 | CNC(=O)C1CC(=O)N(CCc2ccc(C)cc2)C1 (stereo not drawn) | 16.2%
30 | COC(=O)COc1ccc(S(=O)(=O)NCC2CCCO2)cc1Cl (stereo not drawn) | -4.66%
31 | COc1ccc(CNC(=O)Cn2nnc(-c3ccc(NC(=O)C4CCCCC4)cc3)n2)cc1 | 11.6%
32 | Cc1nc2ccc(NC(=O)NC(=O)c3c(Cl)cccc3Cl)cc2o1 | 13.8%
33 | N=c1c2c(-c3ccccc3)c(-c3ccccc3)n(Cc3ccco3)c2ncn1CCO | -52.2%
34 | COCCCN(CC(=O)NCc1ccccc1)S(=O)(=O)c1ccc(C)cc1 | 1.98%
35 | O=C(O)Cn1c(=S)sc2ccccc21 | 12.2%
36 | Cc1ccc(S(=O)(=O)NCCC(=O)OCC(=O)N2CCCC2=O)cc1 | 8.81%
37 | CCOC(=O)c1cc(=O)c2ccc(OCC(=O)Nc3ccc(F)cc3)cc2o1 | 16.8%
38 | CCN(CCNC(=O)CCCn1nc(C)n2c(cc3sccc32)c1=O)c1ccccc1 | -1.14%

Row | Compound | hERG current change (%, negative = inhibition) at 1uM
39 | Cc1ccc(NC(=O)C2CC(Cl)=CCC2C(=O)O)c([N+](=O)[O-])c1 (stereo not drawn) | 7.18%
40 | CC(C)OC(=O)COc1ccc(-c2ccccc2)cc1 | 11.3%
41 | CCn1c(=O)cc(OCC(=O)Nc2ccc(OC)c(OC)c2)c2ccccc21 | 3.13%
42 | O=[N+]([O-])c1cc(C(F)(F)F)cc([N+](=O)[O-])c1NCCCNc1ccc([N+](=O)[O-])c2cccnc12 | 9.82%
43 | C#CCn1c(=O)c2c(ncn2C)n(C)c1=O | 12.2%
44 | N#CCCN(C(=O)COC(=O)CCc1c[nH]c2ccccc12)c1ccccc1 | 14.9%
45 | Cc1nn(C2CCS(=O)(=O)C2)c(C)c1C=O (stereo not drawn) | 12%
46 | Cc1ccc(SC(C)C(=O)O/N=C(\N)c2ccncc2)cc1 (stereo not drawn) | 11.7%
47 | COc1ccccc1CNC(=O)CSc1cc(=O)n(C)c2ccccc12 | 8%
48 | CNCc1sccc1C.Cl | -0.299%
49 | CCOCCn1c(CN2CCCCC2C)nc2c1c(=O)n(C)c(=O)n2C (stereo not drawn) | 12.7%
50 | COc1ccc(NC2CCCN(C(=O)c3ccccc3N3CCOCC3)C2)cc1OC (stereo not drawn) | 13.2%
51 | Cc1ccc(C)c(NC(=O)c2ccccc2Sc2ccc([N+](=O)[O-])cc2Cl)c1 | 8.06%
52 | COc1cccc(NC(=O)CN(C)CC(=O)Nc2ccc(C)c([N+](=O)[O-])c2)c1 | 6.87%
53 | Oc1[nH]c(=S)sc1C=C1N=c2ccccc2=N1 | 16.6%
54 | COc1cccc(C(=O)NCCN2C(=O)S/C(=C/c3cccs3)C2=O)c1OC | 8.24%
55 | COCCCn1c(C(=O)N2CC(C)OC(C)C2)cc2c(=O)n3ccccc3nc21 (stereo not drawn) | 3.32%
56 | C/C(Cn1nnc2ccccc21)=N\NC(=O)c1ccc(Br)cc1 | 6.17%
57 | CC(C)Nc1nc(NC(C)C)nc(Oc2ccc(=O)n(C)n2)n1 | 13.3%
